One assay concerns HSkMC. The assay is described as follows: cytotoxicity call (relative viability < 0.9). As to conditions: 10 µM.
A further assay concerns HepG2. Put plainly: cytotoxicity call (relative viability < 0.9). As to conditions: 10 µM.
For the next assay, the system named is S. aureus RN4220. The assay is described as follows: growth inhibition call (relative growth <= 0.2). The settings on record: 50 µM.

Each structure is given as a SMILES string. The list shows a part of the results.

Take `COc1ccc(C#Cc2cnc3c(c2)C(=O)N([C@H](C)CO)C[C@H](C)[C@H](CN(C)S(C)(=O)=O)O3)cc1OC`: the cytotoxicity call in the assay with HSkMC and with HepG2 was “inactive” in each case. For the same compound, in the assay with S. aureus RN4220, the growth inhibition call was “inactive”.

For `N[C@H]1CC[C@H](CCn2cc(C3CC3)nn2)O[C@@H]1CO`, the cytotoxicity call in the assay with HSkMC and in the assay with HepG2 was “inactive” in each case. Further, in the assay with S. aureus RN4220, the growth inhibition call was “inactive”.

For the compound `C/C=C/c1ccc2c(c1)O[C@@H](CN(C)C(=O)c1ccc3c(c1)OCO3)[C@H](C)CN([C@@H](C)CO)S2(=O)=O`, the cytotoxicity call in the assay on HSkMC and in the assay with HepG2 was “inactive” each time. Moreover, the growth inhibition call in the assay on S. aureus RN4220 is “inactive”.

As to `NC(=O)N1CCc2n[nH]c(C(=O)N3CCOCC3)c2C1`, the cytotoxicity call in the assay on HSkMC and in the assay with HepG2 was “inactive” in each case. Further, in the assay with S. aureus RN4220, the growth inhibition call is “inactive”.

Consider `COc1ccc(S(=O)(=O)Nc2cccc3c2O[C@H](CN(C)S(=O)(=O)c2ccc(C)cc2)[C@@H](C)CN([C@H](C)CO)C3=O)cc1`, for which the cytotoxicity call with HSkMC and in the assay with HepG2 was “inactive” throughout. Further, the growth inhibition call in the assay with S. aureus RN4220 was “inactive”.

For `COc1ccc(S(=O)(=O)Nc2ccc3c(c2)C(=O)N([C@@H](C)CO)C[C@@H](C)[C@@H](CN(C)S(=O)(=O)c2cccs2)O3)cc1`, the cytotoxicity call in the assay with HSkMC and with HepG2 was “inactive” in each case. In addition, in the assay with S. aureus RN4220, the growth inhibition call is “inactive”.

Take `CC12C=CC(=O)C=C1CCC1C2C(=O)CC2(C)C1CCC2(O)C(=O)CO` (stereo unspecified): the cytotoxicity call in the assay with HSkMC and in the assay on HepG2 was “inactive” throughout. In addition, the growth inhibition call in the assay with S. aureus RN4220 was “inactive”.

Turning to `O=C(N[C@@H]1C=C[C@H](CC(=O)N2CCOCC2)O[C@H]1CO)c1ccccn1`, the cytotoxicity call with HSkMC and in the assay on HepG2 was “inactive” in each case. The growth inhibition call with S. aureus RN4220 is “inactive”.

For the compound `C[C@H](CO)N1C[C@H](C)[C@H](CN(C)C(=O)Nc2ccc(C(F)(F)F)cc2)Oc2c(NC(=O)Nc3ccccc3)cccc2C1=O`, the cytotoxicity call with HSkMC and with HepG2 was “inactive” in each case. Moreover, the growth inhibition call in the assay with S. aureus RN4220 is “inactive”.

As to `CC(C)OC(=O)[C@@H](C)Nc1n[nH]c(=O)[nH]c1=O`, the cytotoxicity call in the assay on HSkMC and in the assay on HepG2 was “inactive” in each case. For the same compound, the growth inhibition call with S. aureus RN4220 was “inactive”.

With `COc1cccc(S(=O)(=O)N(C)C[C@H]2Oc3ncc(C#CCC(C)C)cc3C(=O)N([C@H](C)CO)C[C@@H]2C)c1`, the cytotoxicity call with HSkMC was “inactive”. In addition, in the assay on HepG2, the cytotoxicity call is “active”. In addition, the growth inhibition call in the assay on S. aureus RN4220 is “inactive”.

As to `C[C@H]1CN([C@@H](C)CO)C(=O)c2cccc(NC(=O)CCCCCC(=O)Nc3ccccc3N)c2O[C@@H]1CN(C)Cc1ccc(Cl)c(Cl)c1`, the cytotoxicity call in the assay with HSkMC is “inactive”. Besides, the cytotoxicity call in the assay on HepG2 was “active”. Moreover, the growth inhibition call in the assay on S. aureus RN4220 is “inactive”.

For `C[C@@H]1CCCCO[C@H](CN(C)S(=O)(=O)c2ccccc2)[C@@H](C)CN([C@@H](C)CO)C(=O)c2cc(NS(=O)(=O)c3cn(C)cn3)ccc2O1`, the cytotoxicity call with HSkMC and with HepG2 was “inactive” in each case. For the same compound, the growth inhibition call in the assay with S. aureus RN4220 was “inactive”.

As to `C[C@H]1CN([C@@H](C)CO)C(=O)c2cc(NS(=O)(=O)c3ccc(F)cc3)ccc2O[C@H]1CN(C)S(C)(=O)=O`, the cytotoxicity call in the assay on HSkMC and in the assay on HepG2 was “inactive” each time. Besides, the growth inhibition call in the assay on S. aureus RN4220 is “inactive”.

`Cc1ccc(S(=O)(=O)N(C)C[C@@H]2Oc3cc(C#Cc4ccncc4)ccc3S(=O)(=O)N([C@H](C)CO)C[C@@H]2C)cc1`: the cytotoxicity call with HSkMC was “inactive”. Further, the cytotoxicity call in the assay with HepG2 was “active”. For the same compound, the growth inhibition call with S. aureus RN4220 was “inactive”.

With `C[C@H](CO)N1C[C@H](C)[C@H](CN(C)Cc2ccc(Cl)c(Cl)c2)Oc2ccc(NS(=O)(=O)c3cccs3)cc2C1=O`, the cytotoxicity call with HSkMC and in the assay on HepG2 was “inactive” in each case. Besides, the growth inhibition call with S. aureus RN4220 was “inactive”.

As to `COc1ccc(NC(=O)Nc2ccc3c(c2)C(=O)N([C@@H](C)CO)C[C@H](C)[C@@H](CN(C)C(=O)Nc2ccc(C(F)(F)F)cc2)O3)cc1`, the cytotoxicity call in the assay on HSkMC and with HepG2 was “inactive” each time. Further, the growth inhibition call with S. aureus RN4220 is “inactive”.

Turning to `C[C@@H]1CN([C@@H](C)CO)C(=O)c2cccc(NC(=O)Nc3cccc4ccccc34)c2O[C@H]1CN(C)C(=O)NC1CCCCC1`, the cytotoxicity call in the assay with HSkMC and in the assay with HepG2 was “inactive” in each case. Also, the growth inhibition call with S. aureus RN4220 was “inactive”.

On to `C[C@H](CO)N1C[C@H](C)[C@@H](CN(C)C(=O)Nc2ccc3c(c2)OCO3)OCCCC[C@H](C)Oc2ccc(NC(=O)NC3CCCCC3)cc2C1=O`, for which the cytotoxicity call with HSkMC and in the assay on HepG2 was “inactive” each time. The growth inhibition call in the assay on S. aureus RN4220 is “inactive”.

Take `CN(CCOc1ccc(CC2SC(=O)NC2=O)cc1)c1ccccn1.O=C(O)C=CC(=O)O` (stereo unspecified): the cytotoxicity call in the assay with HSkMC was “inactive”. Further, the cytotoxicity call with HepG2 is “active”. The growth inhibition call with S. aureus RN4220 was “inactive”.

Take `O=C(O)/C=C/C1=C[C@@H]2[C@@H](O)[C@@H](O)[C@H]1[C@H](C(=O)O[C@@H](Cc1ccc(O)c(O)c1)C(=O)O)[C@@H]2c1ccc(O)c(O)c1`: the cytotoxicity call in the assay with HSkMC and in the assay with HepG2 was “inactive” each time. Further, the growth inhibition call with S. aureus RN4220 is “inactive”.

As to `COc1ccc(C#Cc2cnc3c(c2)C(=O)N([C@H](C)CO)C[C@H](C)[C@H](CN(C)C(=O)CC2CC2)O3)cc1`, the cytotoxicity call with HSkMC and in the assay with HepG2 was “inactive” throughout. Also, the growth inhibition call with S. aureus RN4220 was “inactive”.

With `C[C@@H]1CCCCO[C@@H](CN(C)C(=O)Nc2ccc3c(c2)OCO3)[C@H](C)CN([C@H](C)CO)C(=O)c2cc(NC(=O)Nc3ccc(F)cc3)ccc2O1`, the cytotoxicity call in the assay on HSkMC and in the assay on HepG2 was “inactive” in each case. For the same compound, the growth inhibition call in the assay with S. aureus RN4220 was “inactive”.

`C[C@@H]1CN([C@H](C)CO)C(=O)c2cc(NS(=O)(=O)c3ccccc3)ccc2O[C@@H](C)CCCCO[C@@H]1CN(C)Cc1ccccc1`: the cytotoxicity call in the assay with HSkMC and with HepG2 was “inactive” each time. Besides, the growth inhibition call in the assay with S. aureus RN4220 is “inactive”.

As for `CN1CCCN(C(=O)c2ncn3c(C4CCN(S(C)(=O)=O)CC4)ccnc23)CC1`, the cytotoxicity call in the assay on HSkMC and in the assay with HepG2 was “inactive” throughout. Besides, in the assay with S. aureus RN4220, the growth inhibition call is “inactive”.

On to `O=C(N[C@H]1C=C[C@H](CC(=O)N2CCOCC2)O[C@H]1CO)c1ccc2c(c1)OCO2`, for which the cytotoxicity call in the assay with HSkMC and in the assay on HepG2 was “inactive” throughout. For the same compound, the growth inhibition call in the assay on S. aureus RN4220 was “inactive”.

Turning to `C[C@@H]1CN([C@@H](C)CO)C(=O)Cc2cc(NC(=O)Cn3cnnn3)ccc2O[C@@H]1CN(C)Cc1ccc2c(c1)OCO2`, the cytotoxicity call in the assay on HSkMC (human skeletal muscle cells) and in the assay with HepG2 was “inactive” in each case. The growth inhibition call in the assay with S. aureus RN4220 is “inactive”.
